Reference: PubChem BioAssay (Tox21)
“And” between values parts separate entries of the source, which are not always exact repeats. Identical values can stand only once. Inconclusive means that the source gave no clear call. Where the call is inconclusive, the potency comes from a doubtful curve fit.

Assay: qHTS assay to identify small molecule antagonists of the TGF-beta/Smad signaling pathway (AID 1346924)
Conditions: SBE-bla HEK293T, TGF-beta/Smad reporter, beta-lactamase ratio; activity, negative = inhibition: at 76.8 µM (top of the series) unless noted; active = well fitted inhibition curve with a large enough effect in the signal ratio in the repeat runs (not every such curve was filed as active); inconclusive = weak or mixed curves; inactive = flat fitted curve, though single readings scatter; the % refers to the signal ratio
Text: U.S. Tox21 Program National Center for Advancing Translational Sciences [NCATS] NIH Chemical Genomics Center [NCGC] U.S. Environmental Protection Agency [EPA] National Institutes of Environmental Health Sciences [NIEHS] National Toxicology Program [NTP] U.S. Food and Drug Administration [FDA] Tox21 Assay Overview: Transforming growth factor beta (TGF-beta) superfamily consists of a large number of structurally related dimeric proteins that act as hormones or local mediators in regulating a wide range of biological functions. This superfamily includes TGF-betas themselves, the bone morphogenetic proteins (BMPs) and the activins. These ligands induce oligomerization of serine/threonine receptor kinases and phosphorylate the cytoplasmic signaling molecules of Smad protein family. CellSensor SBE-bla HEK 293T cell line (Life Technologies, Carlsbad, CA), responsive to TGF-beta was used to screen Tox21 10K compound library for identification of agonists/antagonists of the Smad signaling pathway. This cell line contains a beta-lactamase reporter gene under control of the Smad binding element (SBE) stably integrated into HEK 293T cells.
Tox21 Assay Protocol Summary: SBE-bla HEK 293T cells were dispensed at 4,000/well in 5 uL of assay medium into black wall/clear-bottom 1536-well plates using a Multidrop Combi (ThermoFisher Scientific, Waltham, MA) dispenser. After the assay plates were incubated at 37 C and 5% CO2 for an overnight, 23 nL of compounds dissolved in DMSO, positive controls or DMSO only was transferred to the assay plate by a Pintool station (Kalypsys, San Diego, CA). Compound transfer was followed by the addition of 1 uL of 0.25 ng/mL TGF-beta1 or assay buffer using two separate tips of Flying Reagent Dispenser (FRD, Aurora Discovery, San Diego, CA). The assay plates were incubated at 37 C and 5% CO2 for 5 hr. One uL of LiveBLAzer B/G FRET substrate (Life Technologies) was added using FRD and the plates were incubated at room temperature for 2 hr. Fluorescence intensity (405 nm excitation, 460 nm and 530 nm emissions) was measured using an Envision plate reader (PerkinElmer, Shelton, CT).
Potency is read from the fitted curve at half-maximal effect; tags tell the direction and shape of the fitted curve or compound fluorescence and quenching.

Structure (SMILES)	activity, negative = inhibition	Potency
Cc1cc(C(C)(C)c2cc(C)c(O)c(C)c2)cc(C)c1O	inconclusive: 7.74%	–
C=CC(=O)OCCCCOC(=O)C=C	inconclusive: 22.6%	–
Oc1ccc(C2(c3ccc(O)cc3)c3ccccc3-c3ccccc32)cc1	inconclusive: -10.3%	–
CS(=O)(=O)c1ccc(C(=O)C2C(=O)CCCC2=O)c([N+](=O)[O-])c1	–	inconclusive: 49.9 µM
CCC[CH2][Sn]([CH2]CCC)([CH2]CCC)[O]C(=O)c1ccccc1	–	inconclusive: 4.36 µM
Cc1ccccc1[N+](=O)[O-]	inconclusive: 8.19%	–
O=C1c2ccccc2C(=O)C1C(=O)C(c1ccccc1)c1ccc(Cl)cc1 (stereo not given)	inconclusive: -19%	–
CCOC(=O)c1cn2nc(OP(=S)(OCC)OCC)cc2nc1C	–	inconclusive: 30.9 µM [rising, partial curve, poor fit]
Cc1ccc(OP(=O)(Oc2ccc(C)cc2)Oc2ccc(C)cc2)cc1	inconclusive: -12%	–
O=S1(=O)OCC2C(CO1)C1(Cl)C(Cl)=C(Cl)C2(Cl)C1(Cl)Cl (stereo not given)	inconclusive: -28.5%	–
CCCCCCCCn1sccc1=O	–	inconclusive: 57.6 µM
Oc1ccc(Cl)cc1Cc1ccccc1	–	inconclusive: 51 µM [inhibitor]
N#Cc1sc2c(=O)c3ccccc3c(=O)c=2sc1C#N	–	inconclusive: 49 µM
S=C=NCCc1ccccc1	inconclusive: 6.58%	–
Cc1c(COC(=O)[C@@H]2[C@H](/C=C(\Cl)C(F)(F)F)C2(C)C)cccc1-c1ccccc1	inconclusive: -22.3%	–
CCCCCCCCCC[N+](C)(C)CCCCCCCCCC	–	inconclusive: 61.6 µM [cytotoxic, single point]

Structure (SMILES)	activity, negative = inhibition	Potency
c1ccc2cc3c(cc2c1)-c1cccc2cccc-3c12	–	inconclusive: 24.2 µM [fluorescent, partial curve]
CC(C)Oc1cccc(NC(=O)c2ccccc2C(F)(F)F)c1	inconclusive: -23.6%	–
CN1C[C@H](C(=O)N[C@]2(C)O[C@@]3(O)[C@@H]4CCCN4C(=O)[C@H](Cc4ccccc4)N3C2=O)C=C2c3cccc4[nH]cc(c34)C[C@H]21	inconclusive: 8.24%	–
O=[N+]([O-])c1ccc(Nc2ccccc2)cc1	inconclusive: -23.4%	inconclusive: 27.5 µM [rising, partial curve]
N#Cc1c2ccccc2cc2ccccc12	–	inconclusive: 54.8 µM [fluorescent, partial curve]
O=[N+]([O-])c1cc([N+](=O)[O-])c2ccccc2c1	inconclusive: -8.73%	–
O=[N+]([O-])c1cc(C(F)(F)F)c(Cl)c([N+](=O)[O-])c1Nc1ncc(C(F)(F)F)cc1Cl	–	inconclusive: 3.47 µM [rising, partial curve]
Oc1cc(Cl)c(Cl)c(Cl)c1	inconclusive: -18%	–
COP(N)(=S)Oc1ccccc1C(=O)OC(C)C (stereo not given)	inconclusive: -25.3%	–
CCCCCCCCCC(CC)c1ccc(S(=O)(=O)O)cc1 (stereo not given)	–	inconclusive: 23.6 µM [inhibitor]
CC(=O)[O][Hg][c]1ccccc1	–	inconclusive: 17.2 µM [rising, partial curve] and inconclusive: 19.5 µM [rising, partial curve]
C=C(C)C(=O)[O][Sn]([CH2]CCC)([CH2]CCC)[CH2]CCC	–	inconclusive: 0.871 µM [rising, full curve]
CCOc1cc(C(C)(C)C)ccc1C1COC(c2c(F)cccc2F)=N1 (stereo not given)	inconclusive: -34% [at 35.3 µM]	–
Cc1ccc(N(SC(F)(Cl)Cl)S(=O)(=O)N(C)C)cc1	inconclusive: -29.5%	–
CC(c1ccc(O)cc1)(c1ccc(O)cc1)c1ccc(O)cc1	inconclusive: 4.88%	–
CC(C)(C)CC(C)(C)c1ccc(O)cc1	inconclusive: -14.3% [at 35.3 µM]	inconclusive: 58.2 µM [cytotoxic]

Same assay, conditions: SBE-bla HEK293T, TGF-beta/Smad reporter, beta-lactamase ratio; at 35.3 µM (top of the series)

Structure (SMILES)	activity, negative = inhibition
Oc1ccc(Cl)cc1Cc1ccccc1	inconclusive: -13.5%
C[C@@H]1C[C@@H]([C@H](O)CC2CC(=O)NC(=O)C2)C(=O)[C@@H](C)C1	inconclusive: 20.9%
CCCCCCCCCC(CC)c1ccc(S(=O)(=O)O)cc1 (stereo not given)	inconclusive: -3.81%

Same assay, conditions: SBE-bla HEK293T, TGF-beta/Smad reporter, beta-lactamase ratio; at 76.8 µM (top of the series)

Structure (SMILES)	activity, negative = inhibition
Oc1ccc(Cl)cc1Cc1ccccc1	inconclusive: -23.4%
C[C@@H]1C[C@@H]([C@H](O)CC2CC(=O)NC(=O)C2)C(=O)[C@@H](C)C1	inconclusive: 3.46% and inconclusive: 19.4%
CCCCCCCCCC(CC)c1ccc(S(=O)(=O)O)cc1 (stereo not given)	inconclusive: -22.8%
